Experimental data taken from PubChem BioAssay AID1508623 (National Center for Advancing Translational Sciences (NCATS), 2021).
About 450 (0.94%) of roughly 48,000 compounds were called active. Another 19% or so got no clear call; they are omitted. Calls follow the shape of the dose curve; as a rule, active = well fitted inhibition curve with a large enough effect; inconclusive = small, poorly fitted or top-dose-only effect; inactive = no such curve, though single readings can be large or run the other way. The list shows a part of the results.

Assay: Primary qHTS for Identification of Small Molecule Inhibitors of Huntingtin Promoter Activity; also: nearly all actives have a fitted effect of over 50% in size
Conditions: HEK293 HTT promoter firefly luciferase reporter (activity 0% = vehicle and -100% = no light), 24 h; series mostly up to 57.5 µM; activity change, negative = inhibition: at the top concentration
In short: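 Firefly luciferase signal from promoter-reporter HEK293 cells was scaled between vehicle (0%) and zero RLU (-100%). Compounds were tested at final concentrations of up to 57.5 uM over 24 h at 37 degrees C. PTC124 at 50 uM final served as control inhibitor.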

Activity change, negative = inhibition, inactive:
CCOC(=O)c1c(S(=O)(=O)N2CCCC(C(=O)Nc3cccc(CC)c3)C2)c(C)n(CC)c1C (stereo unspecified) 3.63%
O=C(NCCO[N+](=O)[O-])c1cccnc1
Cc1c(NC(=O)Cc2ccc(Cl)cc2)cccc1-c1nc2cccnc2s1 0.921%
CCOc1ccc(CNC(=O)c2ccc(NC(=O)N3CCCCc4ccccc43)cc2)cc1 -8.09%
CCOC(=O)c1c(C)[nH]c(C)c1S(=O)(=O)NCC(=O)Nc1cccc(Cl)c1 -5.48%
Cc1cccc(CNC(=O)Cn2nc(C)c3nn(-c4ccc(Cl)cc4)c(C)c3c2=O)c1 -13.6%
Cc1c(CNC2CCCCCC2)c(C(=O)O)c(C)n1Cc1cccc(Cl)c1 -3.32%
Cc1ccc(Cl)c(Nc2ccccc2C(=O)O)c1Cl -0.986%
Cc1ccccc1Nc1c(-c2c[nH]c3ccccc23)nc2ccc(Cl)cn12 0.788%
Cc1cc(C)cc(NC(=O)NCc2c(-n3cccc3)sc3c2CCCC3)c1 -8.31%
Clc1cccc(CNCCCSc2nnnn2-c2ccccc2)c1 -7.61%
COC(=O)c1scc(-c2ccc(C)cc2)c1S(=O)(=O)Nc1cc(C)c(Cl)cc1OC -33.3%
Cc1cccc(N2CCN(C(=O)CCS(=O)(=O)c3ccc4c(c3)CC(=O)N4C)CC2C)c1 (stereo unspecified) -21.6%
CC(=O)N1CCN(c2csc3ccc(Cl)cc3c2=O)CC1 10.9%
Cc1ccc(NS(=O)(=O)c2ccc3c(c2)n(C)c(=O)n3C)c(C)c1 -15.5%
Cc1cccc(C(c2sc3nc(-c4ccco4)nn3c2O)N2CCOCC2)c1 (stereo unspecified) 9.25%
O=C(NCCc1cccs1)c1ccc(Cn2c(SCc3cccc(F)c3)nc3cccnc32)cc1 -13.5%
COc1ccc(-c2csc3ncnc(Nc4ccccc4)c23)cc1 -3.66%
Fc1cccc(CN2CCc3nc(Nc4ccc5c(c4)OCCO5)ncc3C2)c1F -11.6%
CCOc1ccccc1NC(=O)Cn1c(=O)oc2ccccc21 -2.63%
CCOC(=O)c1c(-c2ccccc2)oc2ccc(OCc3ccccc3Br)cc12 -12%
COc1ccc(NC(=O)Cn2cc(C(=O)c3ccc(C)c(C)c3)c(=O)c3cc(OC)ccc32)cc1 -14.9%
COc1cc(C2C=C(C(=O)O)Nc3ncnn32)ccc1O (stereo unspecified) -6.57%
CCOc1ccc2c(c1)c(=O)c(C(=O)c1ccc(CC)cc1)cn2CC(=O)Nc1ccc2c(c1)OCCO2 -15.4%
COc1cccc(NC(=O)Cn2c(=O)n(CCC(=O)NCc3ccccc3OC)c(=O)c3ccccc32)c1 -11.6%
COc1ccc(Cl)cc1NC(=O)Cn1c(=O)n2nc(-c3ccccc3)nc2c2ccccc21 3.62%
Cc1ccc(NC(=O)Cn2cc3c(n2)CCCC3)cc1Cl -5.24%
CCN1CCc2c(sc(-n3cccc3)c2C(C)NC(=O)Nc2ccc(C(=O)OC)cc2)C1 (stereo unspecified) -19.9%
COc1ccc(CNC(=O)c2nn(C)c3c2CSc2ccccc2-3)cc1 -16.3%
COc1ccc(-c2csc(-c3c(N)c(C(=O)c4ccc(OC)c(OC)c4)n4ccccc34)n2)cc1 -9.51%
COc1ccc(NC(=O)c2ccco2)cc1NC(=O)c1ccccc1[N+](=O)[O-] 2.92%
Cc1ccc(NC(=O)Cn2c(=O)n(Cc3ccccc3)c(=O)c3c(C)c(C(=O)N(C)C)sc32)c(C)c1 0%
CCN1CCN(C(=O)N[C@@H](C(=O)N[C@@H]2C(=O)N3C(C(=O)O)=C(CSc4nnnn4C)CS[C@H]23)c2ccc(O)cc2)C(=O)C1=O -1.76%
O=C1Nc2ccc(I)cc2C1=Cc1cc(Br)c(O)c(Br)c1 -3.16%
CCc1cccc(C)c1Nc1nn2c(=O)c3ccccc3nc2s1 -16.3%
COc1cc(-c2cc(OC)c3c(C)oc(C)c3c(=O)c2)ccc1OC(=O)c1cccc(C)c1 1.57%
Cc1nn(S(=O)(=O)c2ccc(F)cc2)c(C)c1S(=O)(=O)N1CCCCCC1 -8.39%
CC(NN)c1ccccc1 (stereo unspecified) -1.88% [at 25.2 µM]
Cc1ccc(C(=O)Nc2c(C(=O)Nc3ccc(C)c(C)c3)sc3nc(C)cc(C)c23)cc1 -29.5%
CCCc1cc(=O)[nH]c(SCc2nc(-c3ccc(OCC)cc3)no2)n1 -3.83%
Cc1c(-c2ccccc2)c(=O)oc2c(CN3CCOCC3)c(O)ccc12 -3.62%
Cc1ccc(C2C=C(c3ccccc3)Nc3nc(NS(C)(=O)=O)nn32)cc1 (stereo unspecified) -0.812%
CCc1cccc(C)c1NC(=O)CSc1nc2ccncc2[nH]1 -36.4%
CCOc1ccc(C2C(C(=O)Nc3ccc(OC)cc3)=C(C)Nc3nc(CCCO)nn32)cc1 (stereo unspecified) -12.9%
COc1ccc(NC(=O)C2CCN(c3cc(C)nc4c(-c5ccc(Cl)cc5)c(C)nn34)CC2)cc1 -13.7%
CCOC(=O)C1CCN(Cc2cn3c(-c4ccc(OC)cc4)nnc3s2)CC1 -3.55%
Cc1ccccc1CN1CCCN(CC(=O)Nc2ccc(F)cc2)S1(=O)=O -29.3%
CCOC(=O)c1c(C)oc2nc(C)nc(NCCc3ccc(Cl)cc3)c12 -4.7%
Cc1ccc(NC(=O)Cn2c(=O)n(Cc3ccc4c(c3)OCO4)c(=O)c3oc4ccccc4c32)cc1C -12%
CC(C)c1ccc(NC(=O)Cn2nnc(C(=O)NCc3ccc4c(c3)OCO4)c2N)cc1 -10.7%
Cc1ccc(/C=C/C(=O)Nc2ccc3nc(N4CCC(C)CC4)cc(C)c3c2)cc1 -7.91%
CO[C@@]12[C@H](COC(N)=O)C3=C(C(=O)C(C)=C(N)C3=O)N1C[C@@H]1N[C@@H]12 -31.9%
Cc1cc(N2CCC(C(=O)Nc3ccc(F)cc3F)CC2)n2nc(C)c(-c3ccc(Cl)cc3)c2n1 -10.4%
CCN(c1cccc(C)c1)S(=O)(=O)c1cc2c(cc1C)n(C)c(=O)c(=O)n2C -6.19%
CCOc1ccc(NC(=O)c2sc(-n3nc(C)c(Cc4ccc(Cl)cc4)c3C)nc2C)cc1 7.34%
Cc1nnc(NC(=O)c2nc(SC(C)C)ncc2Cl)s1 -11.2%
CCc1cccc(NC(=O)c2ccc3c(c2)N(Cc2cccc(Cl)c2)C(=O)c2ccccc2S3=O)c1 (stereo unspecified) -4.03%
CCOC(=O)c1c(-c2ccc(C)cc2)csc1NC(=O)c1cc(-c2ccc(OC)cc2)on1 1.84%
Cc1cccc(N(C)C(=O)CCS(=O)(=O)c2ccc3c(c2)n(C)c(=O)c(=O)n3C)c1 -12.6%
COc1ccc(CCNS(=O)(=O)c2c(C)nc3sc(C)cn3c2=O)cc1OC -12.1%
Cc1cc(Nc2cccc(C(=O)O)c2)n2nc(C)nc2n1 2.71%
CCCn1c2ccccc2c2cnn(CC(=O)NCCN(CC)CC)c(=O)c21 -4.83%
Cc1cccc(NC(=O)CN(C)S(=O)(=O)c2ccc3c(c2)c(=O)n(C)c(=O)n3C)c1C 1.27%
CCOc1c(Cl)cc(CNc2ccc3[nH]c(=O)[nH]c3c2)cc1OC -19.2%
CCCCOc1ccc(C(=O)Nc2cc(-c3cn4cccnc4n3)ccc2OC)cc1 -2.35%
COc1ccc(-n2c(=O)c3c(c4cc(OC)ccc4n3C)n(Cc3cccc(OC)c3)c2=O)cc1 -7.07%
O=C(CCc1nc(CN2CCN(S(=O)(=O)c3ccc(Cl)cc3)CC2)no1)N1CCCCC1 -17.7%
Cc1cccc(Cn2c(SCc3ccc(C(=O)NCCc4ccccc4)cc3)nc3ccncc32)c1 -32.6%
CCc1cccc(C)c1NC(=O)Cn1ccn(-c2cccc(OC)c2)c(=O)c1=O 3.18%
O=C(CSCc1cccc(F)c1)NCc1ccccc1 58.5%
Fc1cccc(-n2ncc3c2ncn2nc(COc4ccc(Cl)cc4)nc32)c1 -1.68%
C1CCN2C[C@@H]3C[C@@H](CN4CCCC[C@@H]34)[C@H]2C1 -5.77%
CCOc1ccc(C(=O)NCCn2cc(SCC(=O)Nc3ccc4c(c3)OCCO4)c3ccccc32)cc1 -30.9%
O=C(NCCc1c[nH]c2ccccc12)c1cccnc1 21.8%
COc1cc(NC(=O)Cn2c(=O)n(Cc3ccco3)c(=O)c3sc4ccccc4c32)cc(OC)c1 -8.53%
CCN(CC)C(=O)c1sc2c(c1C)c(=O)n(-c1ccc(Cl)c(Cl)c1)c(=O)n2Cc1ccccc1C#N -12.6%
COCCCNc1oc(/C=C/c2cc(OC)c(OC)c(OC)c2)nc1C#N 10.2%
Cc1ccc(N2CCN(C(=O)c3c(C)oc4ncn(CC(C)C)c(=O)c34)CC2)c(C)c1 -4.53%
Cc1cccc(NC(=O)CSc2ncc3c(n2)-c2ccccc2N(Cc2ccc(F)cc2)S3(=O)=O)c1C -30.1%
Cc1cccc(CCNC(=O)c2ccc3c(c2)N(Cc2ccccc2F)C(=O)c2ccccc2S3)c1 -12.5%
CN(C)c1ccc(-c2nc(-c3cc4cc(Cl)ccc4oc3=O)cs2)cc1 -5.51%
Cc1ccc(Oc2c(C(F)(F)F)oc3c(CN4CCC(C)CC4)c(O)ccc3c2=O)cc1 -19.9%
CCc1cccc(NC(=O)CCC(=O)N2CCSc3ccccc32)c1 -22.9%
CCc1ccc(C(=O)c2cn(CC(=O)Nc3cc(C)ccc3C)c3nc(C)ccc3c2=O)cc1 -2.01%
CCN(CC)C(=O)c1c(-c2ccccc2)c(-c2ccccc2)nn(C)c1=O -2.45%
O=C(CSc1nnc(-c2cccs2)o1)Oc1ccccc1 -0.361%
O=C(CSc1nnc(-c2ccccc2)o1)c1cccc([N+](=O)[O-])c1 -1.21%
O=C(Cn1ncc2c3ccccc3n(Cc3ccc(Cl)cc3)c2c1=O)NCc1ccccn1 -0.112%
NC(=O)c1ccccc1NC(=O)c1ccc(-c2ccc(Br)cc2)o1 73.1%
CCN(CC)CCCNC(=O)c1ccc2c(=O)n(CCc3ccccc3)c(=O)[nH]c2c1 7.88%
CCOc1ccc(C(=O)Nc2ccc3nc(SCCOc4ccccc4)sc3c2)cc1 -3.93%
CC(=O)c1cccc(NC(=O)Cn2nc(C)n3cccc3c2=O)c1 -12.3%
CCC(Sc1nc2cc(OC)c(OC)cc2c2nc(-c3ccccc3)nn12)C(=O)Nc1cccc(C)c1 (stereo unspecified) -1.01%
COc1ccc(NC(=O)C2=C(C)Nc3nc(SCc4ccccc4C)nn3C2c2cc(OC)c(O)c(OC)c2)cc1 (stereo unspecified) -7.25%
Cc1ccc(CSc2nnc(CCNC(=O)OC(C)(C)C)o2)cc1 -18.5%
O=C(NCc1ccccc1Cl)c1ccc(CSCc2ccccc2Cl)o1 -17.9%
